Laboratory results as given in publication PMC4914680 (Antimicrobial Agents and Chemotherapy, 2016).

Columns and labels:
Assay type in all cases: cell-based
[1] = test system: HIV-1 NL4-3 V362I variant
[2] = test system: HIV-1 NL4-3 V370A variant
[3] = test system: HIV-1 NL4-3 V370M variant
[4] = test system: HIV-1 NL4-3 V370A/ΔT371 variant; details: Human immunodeficiency virus 1, NL43, MT2, read-out: EC50 (SD)
[5] = test system: HIV-1 NL4-3 T371A variant; details: Human immunodeficiency virus 1, NL43, MT2, read-out: EC50 (SD)
[6] = test system: HIV-1 NL4-3 ΔT371 variant; details: Human immunodeficiency virus 1, NL43, MT2, read-out: EC50 (SD)
[7] = Human immunodeficiency virus 1, NL43, MT2
[8] = Human immunodeficiency virus 1, NL43, MT2, read-out: EC50 (SD)

| SMILES | EC50 [1, 7] | EC50 [2, 7] | EC50 [3, 7] | EC50 [1, 8] | EC50 [2, 8] | EC50 [3, 8] | EC50 [4] | EC50 [5] | EC50 [6] |
| --- | --- | --- | --- | --- | --- | --- | --- | --- | --- |
| Cc1c(O)cccc1C(=O)N[C@@H](CSc1ccccc1)[C@H](O)CN1C[C@H]2CCCC[C@H]2C[C@H]1C(=O)NC(C)(C)C [NFV] | 5 nM | 4 nM | 5 nM |  |  |  |  |  |  |
| C=C(C)[C@@H]1CC[C@]2(NCCN3CCS(=O)(=O)CC3)CC[C@]3(C)[C@H](CC[C@@H]4[C@@]5(C)CC=C(c6ccc(C(=O)O)cc6)C(C)(C)[C@@H]5CC[C@]43C)[C@@H]12 [BMS-955176] |  |  |  | 4.5 nM | 2.7 nM | 2.8 nM | 6.6 nM | 2 nM | 7.3 nM |
| C=C(C)[C@@H]1CC[C@]2(C(=O)O)CC[C@]3(C)[C@H](CC[C@@H]4[C@@]5(C)CC=C(c6ccc(C(=O)O)cc6)C(C)(C)[C@@H]5CC[C@]43C)[C@@H]12 [BMS-1] |  |  |  |  |  | > 4000 nM | > 10000 nM | 28 nM |  |
| C=C(C)[C@@H]1CC[C@]2(C(=O)NCCc3ccccn3)CC[C@]3(C)[C@H](CC[C@@H]4[C@@]5(C)CC=C(c6ccc(C(=O)O)cc6)C(C)(C)[C@@H]5CC[C@]43C)[C@@H]12 [BMS-2] |  |  |  | 76 nM |  | 61 nM | 188 nM | 19 nM | 38 nM |
| C=C(C)[C@@H]1CC[C@]2(C(=O)NCCN(C)C)CC[C@]3(C)[C@H](CC[C@@H]4[C@@]5(C)CC=C(c6ccc(C(=O)O)cc6)C(C)(C)[C@@H]5CC[C@]43C)[C@@H]12 [BMS-3] |  |  |  | 18 nM |  | 10 nM |  | 3.4 nM |  |

Read-outs that look alike come from different tables or passages of the source.
